The other results are listed elsewhere or left out. Construct or isoform of the protein are uncertain.

This test deals with GST-SBP-ILF3 (Homo sapiens) (UniProt Q12906). The test can be described thus: targeted RNA Bind-n-Seq. The following applies: RBNS binding buffer: 25 mM Tris pH 7.5, 150 mM KCl, 3 mM MgCl2, 0.1% Tween, 0.5 mg/mL BSA, 1 mM DTT; 27 nM protein, 750 pM RNA pool; temperature not stated; high values mean tight binding; sequences stand for … in GGGUAAAAGCGAGGUGAA…CGGGACAAGUAUUAUGGG
For the sequence “GUGUGUGGUGUUGGAGCCUAACACCGCAUA [gtspaired]”, the binding signal (log2 fold change) is -0.507.

In the case of “GUGUGUUGUGUUGGAUCCUAACACAGCGCG [gtspaired]”, the binding signal (log2 fold change) was -0.688.

As to “UUUUUUUUUUGAGAGGGAAUCCCUCUCCUA [tttttgagapaired]”, the binding signal (log2 fold change) is -0.0224.

In the case of “GGUUGGUGUGUUGGCCUCUAACACACUAAC [gtspaired]”, the binding signal (log2 fold change) was -0.614.

For the sequence “GUGUGGUGUGUUGGAGCCUAACACAUCGCG [gtspaired]”, the binding signal (log2 fold change) was -0.468.

In the case of “UUUUUUUUUUGAGAGGGCAACCCUCUCCAG [tttttgagapaired]”, the binding signal (log2 fold change) was found to be 0.39.

As for “UUUUUUUUUUGAGACCGAAUCGGUUUCCGG [tttttgagapaired]”, the binding signal (log2 fold change) was 0.525.

Turning to “UUUUUUUUUUGAGAGCGGAUCGCUCUUCUA [tttttgagapaired]”, the binding signal (log2 fold change) is 0.479.

In the case of “GUUGUGUGUGUUGGUUCCUAACACACGCAG [gtspaired]”, the binding signal (log2 fold change) was -0.559.

For the sequence “UUUUUUUUUUGAGAUCGGCGCGAUCUCCAG [tttttgagapaired]”, the binding signal (log2 fold change) was 0.402.

Take “UUUUUUUUUUGAGACGGCAACCGUUUCCAG [tttttgagapaired]”: the binding signal (log2 fold change) is 0.571.

For “GGUGGUGGUGUUGGCUCCUAACACCAUCGC [gtspaired]”, the binding signal (log2 fold change) is -0.788.

Take “GGUGGUUGUGUUGGAAUCUAACACAGCUAC [gtspaired]”: the binding signal (log2 fold change) was -0.45.

As for “GUGUGUGGUGUUGGUCCCUAACACCGCGCG [gtspaired]”, the binding signal (log2 fold change) is -0.485.

Consider “UUUUUUUUUUGAGACGGCGGCCGUCUCCGG [tttttgagapaired]”, for which the binding signal (log2 fold change) was found to be 0.996.

With “UUUUUUUUUUGAGAUCGGGACGAUCUCCUG [tttttgagapaired]”, the binding signal (log2 fold change) worked out at 0.729.

Regarding “UUUUUUUUUUGAGACCGGUUCGGUCUCCGG [tttttgagapaired]”, the binding signal (log2 fold change) stood at 0.273.

In the case of “UUUUUUUUUUGAGACGGCUACCGUUUCCUA [tttttgagapaired]”, the binding signal (log2 fold change) stood at 0.379.

As for “GGUUGGUGUGUUGGACCCUAACACACUAAC [gtspaired]”, the binding signal (log2 fold change) is -0.15.

Consider “UUUUUUUUUUGAGACCGACUCGGUCUCCUG [tttttgagapaired]”, for which the binding signal (log2 fold change) came out at 0.58.

With “UUUUUUUUUUGAGACUGACUCAGUCUCCUG [tttttgagapaired]”, the binding signal (log2 fold change) stood at 0.367.

In the case of “GUGUGUGGUGUUGGCCUCUAACACCGCGCA [gtspaired]”, the binding signal (log2 fold change) is -0.785.

With “UUUUUUUUUUGAGAGGGUAACCCUUUCCAG [tttttgagapaired]”, the binding signal (log2 fold change) stood at 0.11.

With “UUUUUUUUUUGAGACGGCUGCCGUCUCCAG [tttttgagapaired]”, the binding signal (log2 fold change) amounted to 0.844.

Take “UUUUUUUUUUGAGACUGAGCCAGUCUUCUA [tttttgagapaired]”: the binding signal (log2 fold change) came out at 0.0583.

Take “GUGUUGUGUGUUGGUCUCUAACACACAGCA [gtspaired]”: the binding signal (log2 fold change) is -0.947.

As for “GUGUGUGGUGUUGGAGUCUAACACCGCAUA [gtspaired]”, the binding signal (log2 fold change) was -0.682.

Turning to “GUGGUGUGUGUUGGCGUCUAACACAUACCA [gtspaired]”, the binding signal (log2 fold change) is -0.391.

Consider “GGUGUUGGUGUUGGAAUCUAACACCGAUAC [gtspaired]”, for which the binding signal (log2 fold change) is -0.372.

“UUUUUUUUUUGAGAUGGUGACUAUCUCCGG [tttttgagapaired]”: the binding signal (log2 fold change) amounted to 0.35.

In the case of “UUUUUUUUUUGAGAUGGCUGCCAUCUUCUA [tttttgagapaired]”, the binding signal (log2 fold change) stood at 0.539.

For “UUUUUUUUUUGAGAGUGCAGCAUUCUCCGG [tttttgagapaired]”, the binding signal (log2 fold change) amounted to 0.426.

Consider “UUUUUUUUUUGAGACUGAAUCAGUCUUCUA [tttttgagapaired]”, for which the binding signal (log2 fold change) is -0.121.

On to “UUUUUUUUUUGAGAUGGAGACCAUCUCCUA [tttttgagapaired]”, for which the binding signal (log2 fold change) came out at 0.265.

With “UUUUUUUUUUGAGACUGGACCAGUCUCCUG [tttttgagapaired]”, the binding signal (log2 fold change) is 0.528.

Consider “UUUUUUUUUUGAGACUGCGACAGUCUUCUA [tttttgagapaired]”, for which the binding signal (log2 fold change) was found to be 0.335.

As for “UUUUUUUUUUGAGAUGGUCUCUAUCUCCGG [tttttgagapaired]”, the binding signal (log2 fold change) was 0.371.

“UUUUUUUUUUGAGAGGGCGUCCCUCUCCUG [tttttgagapaired]”: the binding signal (log2 fold change) came to 1.09.

On to “UUUUUUUUUUGAGAACGGGGCGUUCUCCAG [tttttgagapaired]”, for which the binding signal (log2 fold change) amounted to 0.453.

As to “GUUGUGUGUGUUGGCGUCUAACACACACAG [gtspaired]”, the binding signal (log2 fold change) was -1.1.

On to “UUCUCUCUUCCUCCAGAGGAGGAGGAGGGA [ctspaired]”, for which the binding signal (log2 fold change) was 0.0644.

In the case of “UUUUUUUUUUGAGAGGGCGUCCUUCUCCAG [tttttgagapaired]”, the binding signal (log2 fold change) worked out at 0.876.

On to “UUUUUUUUUUGAGAUCGUGACGAUCUCCAG [tttttgagapaired]”, for which the binding signal (log2 fold change) was determined as 0.225.

Turning to “UUUUUUUUUUGAGAGGGGAACCCUCUCCAG [tttttgagapaired]”, the binding signal (log2 fold change) amounted to 0.201.

Consider “GUGUGUUGUGUUGGCGUCUAACACAGCGCG [gtspaired]”, for which the binding signal (log2 fold change) was -0.681.

Turning to “UUUUUUUUUUGAGAGGGGACCCUUCUCCAG [tttttgagapaired]”, the binding signal (log2 fold change) came out at 0.103.

With “UUUUUUUUUUGAGAGGGAACCCCUUUCCGG [tttttgagapaired]”, the binding signal (log2 fold change) is -0.0851.

Consider “GUGUGUGGUGUUGGCACCUAACACCAUACG [gtspaired]”, for which the binding signal (log2 fold change) was -0.581.

For the sequence “UUUUUUUUUUGAGAACGAAGCGUUCUCCUA [tttttgagapaired]”, the binding signal (log2 fold change) came to 0.00319.

On to “GUGUGUUGUGUUGGUAUCUAACACAACGCG [gtspaired]”, for which the binding signal (log2 fold change) is -0.479.

On to “UUUUUUUUUUGAGAUGGUAACUAUCUCCUG [tttttgagapaired]”, for which the binding signal (log2 fold change) worked out at 0.394.

With “UUUUUUUUUUGAGAUGGCAUCCAUCUCCAG [tttttgagapaired]”, the binding signal (log2 fold change) is 0.316.

Regarding “UUUUUUUUUUGAGAACGAACCGUUCUCCAG [tttttgagapaired]”, the binding signal (log2 fold change) came to 0.139.

As for “UUUUUUUUUUGAGAGGGAGUCCCUCUUCUA [tttttgagapaired]”, the binding signal (log2 fold change) worked out at 0.738.

“UUUUUUUUUUGAGAUGGCAACCAUCUCCUA [tttttgagapaired]”: the binding signal (log2 fold change) is 0.325.

Regarding “UUUUUUUUUUGAGACUGGGGCAGUUUCCGG [tttttgagapaired]”, the binding signal (log2 fold change) was determined as 0.921.

“UUUUUUUUUUGAGACCGUGGCGGUCUUCUA [tttttgagapaired]”: the binding signal (log2 fold change) came out at 0.479.

With “GUUGGUGGUGUUGGCGUCUAACACCAUCAA [gtspaired]”, the binding signal (log2 fold change) is -0.549.

Consider “GGUGUUGGUGUUGGAUCCUAACACCGACGC [gtspaired]”, for which the binding signal (log2 fold change) was -0.585.

With “GUGUGGUGUGUUGGAGCCUAACACACCGCG [gtspaired]”, the binding signal (log2 fold change) is -0.509.

Take “UUUUUUUUUUGAGAUGGAAACUAUCUCCUA [tttttgagapaired]”: the binding signal (log2 fold change) was found to be 0.089.

Turning to “GUGUGUUGUGUUGGCUUCUAACACAGCACA [gtspaired]”, the binding signal (log2 fold change) was -0.611.

As to “UUUUUUUUUUGAGAUGGAUGCCGUCUCCAG [tttttgagapaired]”, the binding signal (log2 fold change) is 0.582.

Take “UUUUUUUUUUGAGAUGGAUGCCAUCUUCUG [tttttgagapaired]”: the binding signal (log2 fold change) was determined as 0.215.

On to “GGUUGGUGUGUUGGUACCUAACACAUCAGC [gtspaired]”, for which the binding signal (log2 fold change) was -0.9.

Take “UUUUUUUUUUGAGACUGCAGCAGUUUCCUA [tttttgagapaired]”: the binding signal (log2 fold change) was found to be 0.63.

For “GUUGUGUGUGUUGGUAUCUAACACACGCAG [gtspaired]”, the binding signal (log2 fold change) is -1.01.

As to “UUUUUUUUUUGAGACCGGAGCGGUCUUCUA [tttttgagapaired]”, the binding signal (log2 fold change) was 0.671.

As to “UUUUUUUUUUGAGAUGGCAACCAUCUCCUG [tttttgagapaired]”, the binding signal (log2 fold change) was 0.57.

In the case of “GGUUGGUGUGUUGGUUCCUAACACAUCAGC [gtspaired]”, the binding signal (log2 fold change) is -0.504.

“UUUUUUUUUUGAGAUGGGCACCAUCUCCAG [tttttgagapaired]”: the binding signal (log2 fold change) came out at 0.377.

Regarding “UUUUUUUUUUGAGAGGGGAUCCCUCUCCUA [tttttgagapaired]”, the binding signal (log2 fold change) turned out to be 0.138.

“UUUUUUUUUUGAGAGUGUAACACUCUUCUG [tttttgagapaired]”: the binding signal (log2 fold change) was 0.0948.

In the case of “GUGUGUGGUGUUGGCGCCUAACACCACAUA [gtspaired]”, the binding signal (log2 fold change) was -0.326.

Take “GUGUGGUGUGUUGGAGUCUAACACAUCGCG [gtspaired]”: the binding signal (log2 fold change) was -0.568.

“UUUUUUUUUUGAGAUGGGAACUAUCUCCGG [tttttgagapaired]”: the binding signal (log2 fold change) amounted to 0.169.

Regarding “UUUUUUUUUUGAGACGGAAUCUGUCUCCAG [tttttgagapaired]”, the binding signal (log2 fold change) turned out to be 0.414.

Regarding “GUGUGUUGUGUUGGCCCCUAACACAGCACA [gtspaired]”, the binding signal (log2 fold change) was -0.219.

For the sequence “GUGUGUGGUGUUGGUGUCUAACACCAUACG [gtspaired]”, the binding signal (log2 fold change) was -1.12.

“GGUUGGUGUGUUGGUGCCUAACACACUAAC [gtspaired]”: the binding signal (log2 fold change) was -0.185.

As for “UUUUUUUUUUGAGAACGUGACGUUCUCCUA [tttttgagapaired]”, the binding signal (log2 fold change) was -0.0796.

In the case of “UUUUUUUUUUGAGACGGCGGCCGUCUCCAG [tttttgagapaired]”, the binding signal (log2 fold change) came out at 1.07.

“UUUUUUUUUUGAGAGCGGAGCGCUCUCCAG [tttttgagapaired]”: the binding signal (log2 fold change) is -0.043.

Regarding “UUUUUUUUUUGAGAGGGAGUCCUUCUCCAG [tttttgagapaired]”, the binding signal (log2 fold change) worked out at 0.494.

On to “GUUGUGUGUGUUGGCUUCUAACACACGCGA [gtspaired]”, for which the binding signal (log2 fold change) was -0.658.

Turning to “GUUGGUGGUGUUGGCCUCUAACACCGCCAG [gtspaired]”, the binding signal (log2 fold change) is -0.471.

Regarding “GGUGUUGGUGUUGGUCCCUAACACCAGCGC [gtspaired]”, the binding signal (log2 fold change) was -0.657.

Consider “GUGGUGUGUGUUGGCCUCUAACACAUACUA [gtspaired]”, for which the binding signal (log2 fold change) was -0.79.

As to “UUUUUUUUUUGAGAGGGUUUCCCUCUCCAG [tttttgagapaired]”, the binding signal (log2 fold change) came out at 0.0118.

Take “UUUUUUUUUUGAGACGGCUGCCGUUUCCAG [tttttgagapaired]”: the binding signal (log2 fold change) was found to be 0.73.

As to “UUUUUUUUUUGAGAAGGAACCCUUCUCCAG [tttttgagapaired]”, the binding signal (log2 fold change) was -0.255.

“UUUUUUUUUUGAGAGGGGGGCCCUCUCCAG [tttttgagapaired]”: the binding signal (log2 fold change) was found to be 0.781.

Regarding “UUUUUUUUUUGAGAGCGAGGCGUUCUUCUA [tttttgagapaired]”, the binding signal (log2 fold change) came out at 0.652.

For the sequence “UUUUUUUUUUGAGAUGGUGGCCAUCUCCUA [tttttgagapaired]”, the binding signal (log2 fold change) is 0.683.

Consider “UUUUUUUUUUGAGAGGGAUCCCCUCUCCAG [tttttgagapaired]”, for which the binding signal (log2 fold change) was 0.282.

As to “UUUUUUUUUUGAGAUCGGAACGAUUUCCAG [tttttgagapaired]”, the binding signal (log2 fold change) is 0.115.

Regarding “UUUUUUUUUUGAGACUGCGUCAGUCUUCUA [tttttgagapaired]”, the binding signal (log2 fold change) amounted to 0.313.

For “GGUGGUUGUGUUGGAACCUAACACAGCCGC [gtspaired]”, the binding signal (log2 fold change) was -0.576.

For “UUUUUUUUUUGAGAGGGGGUCCUUCUCCAG [tttttgagapaired]”, the binding signal (log2 fold change) was 0.801.

As for “GUGGUGUGUGUUGGAUUCUAACACAUACUA [gtspaired]”, the binding signal (log2 fold change) is -0.715.

With “GUGGUGUGUGUUGGAGUCUAACACAUACCG [gtspaired]”, the binding signal (log2 fold change) was -0.761.

Regarding “UUUUUUUUUUGAGAGGGUGCCCCUCUCCUA [tttttgagapaired]”, the binding signal (log2 fold change) came out at 0.21.

Regarding “UUUUUUUUUUGAGAACGGUGCGUUCUUCUG [tttttgagapaired]”, the binding signal (log2 fold change) amounted to 0.563.

(Values after paper PMC5892938.)
